The source of these data is ChEMBL document CHEMBL4888484, “Replenishing the malaria drug discovery pipeline: Screening and hit evaluation of the MMV Hit Generation Library 1 (HGL1) against asexual blood stage Plasmodium falciparum ,using a nano luciferase reporter read-out” (2022).

Among all 150,000 compounds or so, about 540 (0.36%) showed an effect of 50% or more. The list shows a part of the results.

The experiment has as its system Plasmodium falciparum. The experiment is described as follows: Primary screen in NF54 nanoGlo assay, in single point, at 2uM, 72h; a lower Z score goes with more inhibition. In kind it is functional, Erythrocyte. Conditions: timepoint 72 hour.
As to `CN(C)S(=O)(=O)c1ccc(C(=O)N2CCC(=O)CC2)cc1`, the % Inhibition (usually the drop in the measured response relative to a control, in per cent) was -7% and the Z score was 1.15.
As to `COc1ccc(Cc2nc(-c3ccc4c(c3)oc(=O)n4C)no2)c(Cl)c1`, the “% Inhibition” value was found to be 1% and the Z score was -0.1.
The corresponding values for `CC1CCN(CC(=O)O)C2CCCCC12` (centres undefined) are -4% and 0.55.
On to `CN1CCN(C(=O)c2cccnc2C2CC2)C[C@@]12CCOC2`, for which the “% Inhibition” value is -4% and the Z score is 0.53.
The matching figures for `COc1c(F)cc(CN2C[C@H]3c4ccccc4OC[C@@]3(C(=O)O)C2)cc1F`: -3% and 0.5.
The corresponding values for `O=C(O)C1CC2CCC1N2Cc1ccc2c(c1)CCC2` (centres undefined) are 3% and -0.35.
Regarding `O=C(Oc1ccc2ccc(OC(=O)N3CCOCC3)cc2c1)N1CCOCC1`, the “% Inhibition” value is 1% and the Z score was -0.25.
The corresponding values for `CN(CC[C@H]1CCCCO1)S(=O)(=O)c1ccc2[nH]c(=O)oc2c1` are -2% and 0.31.
The matching figures for `FC(F)(F)c1ccc(N2CC[C@H]3CC[C@@H](C2)N3)nc1`: -7% and 1.13.
The corresponding values for `C[C@@H](Cc1ccc(Cl)cc1)NCC1(N(C)C)CCOCC1` are -4% and 0.33.
As for `Cc1nc(N2C[C@H](c3ccccc3)[C@@H]3[C@H]2C2CCN3CC2)c2c(C)noc2n1`, the “% Inhibition” value is 11% and the Z score is recorded as -1.61.
For the compound `Cn1nc(C(=O)N2CCC3(CC2)OCCO3)c2ccccc2c1=O`, the “% Inhibition” value was -14% and the Z score came out at 2.25.
The matching figures for `O=C1CCCN1C(=O)c1ccc(Cl)cc1`: -5% and 0.73.
Take `O=C1C[N+]([O-])=C(c2ccccc2)c2cc(Cl)ccc2N1` [DEMOXEPAM]: the “% Inhibition” value came to 24% and the Z score was -2.73.
The corresponding values for `COc1ccc(CCN[C@@H](C)c2ccncc2)cc1OC` are 1% and -0.13.
The matching figures for `CN(C)[C@@H]1CN(C(=O)Cc2cccc(F)c2)CC[C@@H]1CO`: -13% and 2.27.
With `CCc1nsc(N2CCc3nccc(N)c3C2)n1`, the “% Inhibition” value was 9% and the Z score is on record as -1.17.
As to `COc1ccc(C(C)NC(C)Cc2ccc(C)s2)cc1NC(C)=O` (centres undefined), the “% Inhibition” value is recorded as 0% and the Z score was determined as 0.02.
With `Cc1cc(NC(=O)CN2CCCC3CCCCC32)no1` (centres undefined), the “% Inhibition” value was -8% and the Z score turned out to be 1.18.
With `Cc1noc(C)c1CC(C)NC1CCc2ccc(F)cc21` (centres undefined), the “% Inhibition” value is recorded as -2% and the Z score stood at 0.14.
As for `N#CC1CCC(N2CCN3C(=O)NCC3C2)C1` (centres undefined), the “% Inhibition” value was found to be 5% and the Z score is listed as -0.81.
The corresponding values for `Cc1nsc(N2C3CCC2C(C(=O)OC(C)(C)C)C3)n1` (centres undefined) are 4% and -0.41.
As to `CC(C)(C)N1C(=O)NC(=O)C2(Cc3ccccc3N3CCN(Cc4ccccc4)CC32)C1=O` (centres undefined), the “% Inhibition” value was determined as 30% and the Z score is reported as -3.35.
Take `Cc1ccccc1[C@](CCN1CCCCC1)(C(N)=O)c1c(C)cccc1C`: the “% Inhibition” value is on record as -12% and the Z score is recorded as 1.45.
The corresponding values for `Cc1cc(C(C)NC(C)C(C)c2ccccc2C(F)(F)F)no1` (centres undefined) are -2% and 0.29.
On to `O=C(c1ccc(Oc2ccccc2)cc1)[C@H]1CCCNC1`, for which the “% Inhibition” value is -14% and the Z score came to 1.99.
With `Cc1nc2nc(CN3CCN4C(=O)OC[C@H]4C3)cc(O)n2n1`, the “% Inhibition” value is reported as -6% and the Z score is reported as 1.15.
The matching figures for `Cc1cn2c(=O)cc(CN3CC[C@H](O)CC34CCC4)nc2s1`: -4% and 0.49.
For the compound `CCc1ccc(NC(=O)CC2CCN(S(=O)(=O)c3ccc4c(c3)oc(=O)n4CC)CC2)cc1`, the “% Inhibition” value is -8% and the Z score stood at 0.73.
Regarding `CC(C)N1CCN(c2oc(C3CC3)nc2C#N)CC1`, the “% Inhibition” value is -4% and the Z score turned out to be 0.67.
The matching figures for `COCCOCC(=O)N1C[C@@H]2CC[C@H]1CN(Cc1ccccn1)C2`: 12% and -1.65.
Regarding `CN1CCC2C(CCCN2C(=O)CCCc2ccccn2)C1` (centres undefined), the “% Inhibition” value is -8% and the Z score is 0.94.
For `O=C(COc1ccccc1)N1CCN2CCS(=O)(=O)N(C3CC3)C(=O)[C@@H]2C1`, the “% Inhibition” value stood at 10% and the Z score is reported as -1.94.
The corresponding values for `Cc1ccc(Cl)c(NC(=O)N2CCC[C@H](c3n[nH]c(=O)o3)C2)c1` are 41% and -5.9.
The matching figures for `CCCCOC(=O)N1C[C@@H]2CC[C@H]1CN(Cc1ccncc1)C2`: -14% and 1.72.
As to `CN1C(=O)C(C2c3ccccc3Oc3ccccc32)C(=O)N(C)C1=O`, the “% Inhibition” value was 13% and the Z score is given as -2.4.
As for `Cc1cc(=O)c(C(=O)NCCN2CCOCC2)c(CCc2ccccc2)n1Cc1ccncc1`, the “% Inhibition” value is -6% and the Z score was 1.21.
With `OC1CCC(NC2CCCCCCC2)CC1` (centres undefined), the “% Inhibition” value is -10% and the Z score came out at 1.91.
With `Cc1cnn(C[C@H](C)NCc2ccco2)c1`, the “% Inhibition” value is -6% and the Z score is on record as 0.89.
For `COc1ccc(CCN[C@@H](C)c2nccs2)cc1OC`, the “% Inhibition” value is 5% and the Z score is -0.66.
For the compound `CCn1nccc1C(=O)N1CC[C@@H]2CN(Cc3ccncc3)[C@@H]2C1`, the “% Inhibition” value was -15% and the Z score is 2.08.
The corresponding values for `CS(=O)(=O)N1C[C@@H]2C[C@H](C1)c1ccc(-c3cccc(C(F)(F)F)c3)c(=O)n1C2` are 32% and -3.6.
The matching figures for `CC(C)(C)c1ncc2c(n1)CC1CCC2N1` (centres undefined): -9% and 1.28.
For `CCCn1c(=O)oc2cc(NS(=O)(=O)c3ccc(Cl)cc3)ccc21`, the “% Inhibition” value is -14% and the Z score is 1.36.
On to `Cc1ccc(S(=O)(=O)CCc2noc(C(=O)N3CCC4(CC3)OCCO4)n2)cc1`, for which the “% Inhibition” value is given as -7% and the Z score came to 1.02.
The corresponding values for `COc1cc2ccccc2cc1C(=O)Nc1ccc(Cl)cc1C(=O)c1ccccc1` are -6% and 0.84.
As to `OC1CC2CCCC(C1)N2Cc1ccccc1` (centres undefined), the “% Inhibition” value was -7% and the Z score came out at 0.98.
The matching figures for `CC1(C)CCCCC1NC1CC2CCC1O2` (centres undefined): -10% and 1.63.
The matching figures for `OCC(CO)N1C[C@H](c2cccc(F)c2F)[C@@H]2[C@H]1C1CCN2CC1`: -8% and 0.85.
On to `c1cc(N2CCN3CCC[C@H]3C2)ncc1-c1nc(C2CC2)no1`, for which the “% Inhibition” value is -11% and the Z score was found to be 1.4.
As to `Cc1ccc(CN2C[C@H]3CCC[C@@H](C2)N(C)C3)nc1`, the “% Inhibition” value is -15% and the Z score is 1.43.
With `Cc1cc(O)nc(CN2C[C@H](C)OC3(CCC3)C2)n1`, the “% Inhibition” value is on record as -6% and the Z score was found to be 0.8.
As to `O=C(Cc1cccc(F)c1)N1CC(N(Cc2ccncc2)CC2CC2)C1`, the “% Inhibition” value is reported as -7% and the Z score was 1.25.
The corresponding values for `Nc1ccnc(N2C[C@H](c3cccc(F)c3F)[C@@H]3[C@H]2C2CCN3CC2)n1` are 9% and -1.07.
Turning to `O[C@](C#CCN1CCOCC1)(c1ccccc1)C1CCCC1`, the “% Inhibition” value was -4% and the Z score is given as 0.55.
As to `Cc1noc(C)c1CN[C@@H](C)Cn1cncn1`, the “% Inhibition” value is given as -4% and the Z score came out at 0.78.
The corresponding values for `CCC1CC(c2nc(-c3ccc4oc(=O)[nH]c4c3)no2)CCO1` (centres undefined) are 3% and -0.4.
As to `Cc1cc(C)cc(OCC(=O)N2CCN([C@@H](C)c3nnc(C)s3)CC2)c1`, the “% Inhibition” value is reported as -4% and the Z score is listed as 0.78.
In the case of `CCCC(=O)N1C[C@@H](c2cccc(F)c2F)[C@@H]2[C@H]1C1CCN2CC1`, the “% Inhibition” value is given as -3% and the Z score is 0.63.
Regarding `CNC(=NCCc1cn(C)c2cc(C)ccc12)NC`, the “% Inhibition” value is -5% and the Z score was 0.52.
Consider `CC(C)c1cccc(OCC#CCN2CCOCC2)c1`, for which the “% Inhibition” value was -8% and the Z score turned out to be 0.83.
The corresponding values for `O=C(c1cc(C2CC2)nc2ccccc12)N1CCC2(CC1)OCCO2` are 3% and -0.45.
The matching figures for `COc1ccc(Cl)cc1C(=O)[C@H]1CCCN(Cc2ccon2)C1`: -9% and 1.19.
Consider `COc1ccc(NCCS(=O)(=O)F)cc1`, for which the “% Inhibition” value is recorded as 0% and the Z score was determined as 0.03.
The corresponding values for `COCCN1CC[C@H](N2CCCN(C(=O)Cc3c[nH]c4ccccc34)CC2)C1=O` are -13% and 1.74.
The corresponding values for `COc1ccc2c(c1)OC[C@@]1(C(=O)O)CN(CCC(F)(F)C(F)F)C[C@@H]21` are -20% and 1.95.
As to `CNc1nc(N2CCN(CCc3ccccc3)CC2)nc2c1CCC2`, the “% Inhibition” value is on record as -9% and the Z score is recorded as 1.39.
The matching figures for `Cc1c(C(=O)NC(C)(C)c2cccc(Cl)c2)nnn1C1CCNCC1`: -5% and 0.76.
The matching figures for `O=C(NCC#CCN1CCCCC1)c1cccc(Br)c1`: -9% and 1.71.
The corresponding values for `Cc1ccc([C@H](C)Nc2ncncc2C(=O)O)cn1` are -10% and 1.35.
As to `COC(c1ccccc1)C(C)NCC(O)(C1CC1)C1CC1` (centres undefined), the “% Inhibition” value is recorded as -3% and the Z score is reported as 0.45.
The matching figures for `OC[C@]12COCCN1CCN(c1ncnc3[nH]ncc13)C2`: -7% and 1.22.
The corresponding values for `CC(C)(C)c1csc([C@@H]2CNCCO2)n1` are 1% and -0.12.
For the compound `COc1cc(C)nc(CN2CCc3nccc(N)c3C2)c1`, the “% Inhibition” value is on record as -1% and the Z score was 0.13.
`CN(C)S(=O)(=O)N1C[C@H]2CC[C@@H](C1)N(Cc1c(Cl)cncc1Cl)C2`: the “% Inhibition” value is recorded as -11% and the Z score was found to be 1.15.
For `O=C(c1ncncc1Cl)N1C[C@@H]2CCCN2Cc2ccccc21`, the “% Inhibition” value is given as -15% and the Z score came out at 2.29.
The corresponding values for `CC(=O)NCCNC(=O)N[C@@H](C)Cc1c(Cl)cccc1Cl` are 4% and -0.55.
For the compound `O[C@]1(c2ccc(Cl)cc2)C[N+]2=C(CCCCC2)N1c1ccccc1`, the “% Inhibition” value was found to be 12% and the Z score is reported as -2.3.
The matching figures for `NCCc1ccc(C[C@@H]2COc3ccccc3C2)cc1`: 1% and -0.06.
Consider `O[C@@H]1COCCN(CCn2ccc3cc(Cl)ccc32)C1`, for which the “% Inhibition” value is -1% and the Z score was 0.12.
As to `COCC(C)NC(C)Cc1ccccc1F` (centres undefined), the “% Inhibition” value is -7% and the Z score is recorded as 1.28.
The corresponding values for `COC(=O)N1C[C@@H](c2cc(F)cc(F)c2)[C@@H]2[C@H]1C1CCN2CC1` are -3% and 0.57.
With `CC(Cn1cncn1)NC(C)c1ccc(Br)cc1F` (centres undefined), the “% Inhibition” value is -6% and the Z score worked out at 0.61.
Regarding `CN1C(=O)[C@@H]2CC[C@H]1CN(Cc1cc(C3CCCCC3)no1)C2`, the “% Inhibition” value is recorded as -8% and the Z score is on record as 1.3.
The corresponding values for `CCn1c(=O)oc2cc(-c3noc(-c4cccc(F)c4)n3)ccc21` are -20% and 1.92.
The corresponding values for `CNS(=O)(=O)CCCN1CCOC2CCCC21` (centres undefined) are -13% and 1.87.
Regarding `O=C(c1ccc2c3c(cccc13)CC2)[C@H]1CCCN(C2CCOCC2)C1`, the “% Inhibition” value is listed as -8% and the Z score is 1.2.
